# Test results published in article PMC12136788.
# The other results are listed elsewhere or left out.
# T1: UNK ZnF1-3 (human, UniProt Q9C0B0 31-174)
# T1 sequence: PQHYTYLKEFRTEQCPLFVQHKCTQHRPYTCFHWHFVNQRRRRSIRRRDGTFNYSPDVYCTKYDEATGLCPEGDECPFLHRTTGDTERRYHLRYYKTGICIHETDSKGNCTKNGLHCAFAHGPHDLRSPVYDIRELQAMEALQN
# B1: chr19:58207738:58207739:+_ENSMUSG00000054843_ENSMUST00000077282|mus_hu|FALSE|FALSE (ssRNA)
# RNA: GGGAGUUCUACAGUCCGACGAUCCCCAGAAAGGUAUAGCAUGACUUUAACUAAACAUCACAUUGUGUCUCAUAAUUCUCUACAAUUUGAAUUUUCAAGUUUUAAGAACCCAGUGGGAUUUGAGGUGAAUAAAACUUGAUAAUUCAACAGAGGAUUGAGCAUCA
# B2: 49442959_49443542_3888_CDS_ENSG00000167548_ENST00000301067|human|control|control (ssRNA)
# RNA: GGGAGUUCUACAGUCCGACGAUCUCCACGAGGCCGGCGUCUUCCUGGGAAACUGCUGCUGCGACCCUGUUUGAUGCGGGAACGGGCUGGGGAGCUGCGCCGCCGCCCCUUCUCCCCCUCAGCUUUGCCUCCGCUGAUAGCUGUCAACAGAGGAUUGAGCAUCA
# B3: 71360568_71360688_1042_CDS_ENSG00000124383_ENST00000244230|human|control|control (ssRNA)
# RNA: GGGAGUUCUACAGUCCGACGAUCAAACAGUCCCCCUUCAUCUUCAUCAGAAUCAAUAUCUUCAAAAAAAUCAAUAUCUUCCUCCUCCUCAUCAUUAUCAUCUUUUCGUUCCUCUUCUUUUUCUAUGUUUUCUAAAUAGGCCUCCAACAGAGGAUUGAGCAUCA
# B4: chr18:42401725:42401726:-_ENSMUSG00000024493_ENSMUST00000097590|mus_mus|FALSE|FALSE (ssRNA)
# RNA: GGGAGUUCUACAGUCCGACGAUCAGGCCGAACCCAACAAUUUGUCUGCCCAAACAUAGUCUCAGGUCUGAGUGUAGCAGCUACUAGGAAGAUAUUUUUCCCUUUCAGGCCGCUUAAUUUUGAUGGAUAUGGUUCAAGCACCUUCAACAGAGGAUUGAGCAUCA
# B5: chr11:50196439:50196440:+_ENSMUSG00000007850_ENSMUST00000069304|mus_mus|motif|central (ssRNA)
# RNA: GGGAGUUCUACAGUCCGACGAUCCCCAUAUCUGUGGUCAGACAUUCCUGAAAAACAAUAAUUGAGGUCUCUUCCAAAUCGGUCUGAACCAAAUCCAUAGCCAUCAUUAUAGCCAUUAUAAUCAUCAUAGCCUCCAUAGCCUCCCAACAGAGGAUUGAGCAUCA
# B6: chr1:244855233:244855234:+_ENSG00000121644_ENST00000302550|hu_hu|motif|central (ssRNA)
# RNA: GGGAGUUCUACAGUCCGACGAUCCAUUAAAUGAUAAGCAUUGCCUUUGUAUUCUUUUCCCAGUUCUUCUACAAUUUUUUCGGUAUCAUCUUCUAGGAAGUCCGUGCUCCCUAAAACAACAGCUUCUUUAAAUUUAAAUGUUUCCAACAGAGGAUUGAGCAUCA
# B7: 156572074_156572194_565_ncRNA_ENSMUSG00000061689_ENSMUST00000127944|mouse|control|control (ssRNA)
# RNA: GGGAGUUCUACAGUCCGACGAUCUGUACAGGAGCUUGCUGGCUGAGUGUAACUACAUUCACUGGGACAACCCACUGGAGGAUGUCCAGCUAUGGACCUGCAGCAUGGGUGCUGGACACACGAGUGUGGCUGCAGGAGAAUUUGCAACAGAGGAUUGAGCAUCA
# B8: chr8:35203877:35203878:-_ENSMUSG00000031513_ENSMUST00000033910|mus_hu|FALSE|FALSE (ssRNA)
# RNA: GGGAGUUCUACAGUCCGACGAUCGGAAGGGCACAUCCAAGCAUCAAAAACAUCAGUCCGAUUGCUCCUCCAAAGGACAAACUAAUCAAAGCUUUGAUGCCUGCCAUGGCGGUGACGUCGCUCCUGGCUCCACGACCCGAGGCGCAACAGAGGAUUGAGCAUCA
# B9: 219525671_219525791_158_CDS_ENSG00000074582_ENST00000359273|human|control|control (ssRNA)
# RNA: GGGAGUUCUACAGUCCGACGAUCUGUGCCCACACCCACCAGCCCAAAUCCAGCCCCAAAGUAGGGAUUGUCCUUCAGAGCCAGAAUAAAGUCUGAAAGUGGCAUCUUGAAAGGGAAACACCAAACCUUACAGGCCCUGGGGUGCAACAGAGGAUUGAGCAUCA
# B10: chr12:39752152:39752153:-_ENSG00000139116_ENST00000544797|hu_hu|motif|central (ssRNA)
# RNA: GGGAGUUCUACAGUCCGACGAUCGUAUUUCAGGGUGUUUAACGUUUCCAUAAAGUCUCUGUCUGAAGGGCUGACACAUGCGGUCAUGAUUGUUUGGCUAUUACCCCCGAGGGAAUCCUGUAGUAGUCUUGUUAGCUUGGAAUCCAACAGAGGAUUGAGCAUCA
# B11: chr4:33586012:33586013:+_ENSMUSG00000028274_ENSMUST00000108153|mus_mus|FALSE|FALSE (ssRNA)
# RNA: GGGAGUUCUACAGUCCGACGAUCCGAGAUGCUAUUGCACACAGCCAUGGCUGUGUUGUAGGCAUUUGGGAAACUUUUGUCUAUCCUCUGUCUCAUGAAGACCCAGCUAUUGUUCUCAAAUUUGCAUUCUAUAAUUUUGUUGUCCAACAGAGGAUUGAGCAUCA
# B12: chr6:114281168:114281169:-_ENSG00000196591_ENST00000368632|hu_hu|hu_hu_hu_mus_True|1_108 (ssRNA)
# RNA: GGGAGUUCUACAGUCCGACGAUCUUCCAUUUUUCUGUAUAAACCAUAAUUUAGCAGCAAGUUAUGAGUCAUCCGGAUUCUAUGAGGCUUCAUGGGAUGACCCUGGCCAUAAUAAUAAUUGCCAAUAUCACCAUCAUACUAGAACAACAGAGGAUUGAGCAUCA
# B13: 5257761_5264598_1355_CDS_ENSG00000029725_ENST00000262477|human|control|control (ssRNA)
# RNA: GGGAGUUCUACAGUCCGACGAUCCAUGUCAUUGUCCGAUUUACUGAAAGGAUCUCCAGAUGGCAACAGCAAGCCUGCAUCUAAGGAAUGAACUGAGCCACGGGUGCUGUCUAAAUGCUCCUCUUCAUUUGAUAACUGGGCUGACAACAGAGGAUUGAGCAUCA
# B14: 54679947_54680067_123_3pUTR_ENSMUSG00000020267_ENSMUST00000020504|mouse|control|control (ssRNA)
# RNA: GGGAGUUCUACAGUCCGACGAUCCUUUGCGGAUGAUCUUGCCGAAGAUCGUGUCGCCGCCGGGCUGGGCCACUUGAGCCUUGGCAAUCUCGUCAGCCAUCGCGGCCGCUCACUGUCCUUCCCGCGCCGCGGCCACAGUGGGGACAACAGAGGAUUGAGCAUCA
# B15: chr14:31074762:31074763:+_ENSG00000092140_ENST00000206595|hu_hu|motif|central (ssRNA)
# RNA: GGGAGUUCUACAGUCCGACGAUCCCAGAUAUUGGCUUUGUUGAUAUACAAUCUUUUAGUUUUUUUUUUAAUUUGGAAUCCGGACUCGGUUAAUAGUGUUGAUACAUUUCUUCUAAAUUUGCUGCCUUGCCUCAGUAGAUCUUUCAACAGAGGAUUGAGCAUCA
# B16: chr4:148551591:148551592:-_ENSMUSG00000063077_ENSMUST00000060537|mus_hu|mus_mus_mus_hu_False|68_78 (ssRNA)
# RNA: GGGAGUUCUACAGUCCGACGAUCACCUGACAAAAUUAAAUAUCCCUGUAAAUUAGACAAGAAGCAGCAGGUAACAAAGUCUUUGCUUUGGAAUAUGUGCCAGGAAAAGUCAUCUUGUUUUUAGAUCUCAAGAGACAGUUCACACAACAGAGGAUUGAGCAUCA
# B17: 162081223_162087567_785_CDS_ENSG00000136560_ENST00000392749|human|control|control (ssRNA)
# RNA: GGGAGUUCUACAGUCCGACGAUCUAUAUCAUCUUUAGCCUGAGGCUUAAACAGCGCUUCUUGUUUAUCUGUUUUAUCCGUACACUGUAUAGGCACAGAGCACUGUGUUUCAGUUGCAGUGUCUGGUAUAUUAAGUUUGCUUAACAACAGAGGAUUGAGCAUCA
# B18: 47486407_47486699_519_3pUTR_ENSG00000167085_ENST00000300408|human|control|control (ssRNA)
# RNA: GGGAGUUCUACAGUCCGACGAUCGACACGUCAUCCAGGAUGAGCCCAAAGGUGGCGGCUCGCUCUGUAAGGUCGUCGCUCACCUGCCUGGAGACCAGCUCUCUCUGGGUGAUUAGUUCUCCAGCAUCAAAGCGAGCCACCACUCAACAGAGGAUUGAGCAUCA
# B19: chr6:91700303:91700304:+_ENSMUSG00000030096_ENSMUST00000032185|mus_mus|FALSE|FALSE (ssRNA)
# RNA: GGGAGUUCUACAGUCCGACGAUCAAGAGCUGGAGUGAUGACAGCCCAGCUGUACUUCAUCCAGGGCCCAGGCCGAUAGCCAAUCAUGUCCUCAAUACCGUCAUAUAAGUUAUCACCGCCAUAUAUCCAGGCAAUAACAAAACACAACAGAGGAUUGAGCAUCA
# B20: chr9:58049150:58049151:-_ENSMUSG00000051243_ENSMUST00000114144|mus_hu|FALSE|FALSE (ssRNA)
# RNA: GGGAGUUCUACAGUCCGACGAUCUCCUGGGGCUGAAACCCCUUCUCCAGACCCGGCGUGGCAGAGCAGGGAAGAUAGCCCAAGCAAGAUACACGCAUGUGUUGUGGCCUCACGCGCCUGUCCCGCCAGCGCCCGCGAGCUUCGCAACAGAGGAUUGAGCAUCA
# B21: chrX:71549400:71549401:+_ENSMUSG00000019087_ENSMUST00000019231|mus_hu|mus_mus_mus_hu_False|38_68 (ssRNA)
# RNA: GGGAGUUCUACAGUCCGACGAUCGCAGUAGGAAGAGGGAAGCUCUUCAGUCCAGUGCGCUGCAGGGAGAAACAUGAACAACACGGACACCGUCCCACCUCAAUUCCCCCCACUGGCACAGGGUCACACAAUCUGGGUCAAAGACAACAGAGGAUUGAGCAUCA
# B22: chr8:27591085:27591086:-_ENSG00000147419_ENST00000356537|hu_hu|motif|central (ssRNA)
# RNA: GGGAGUUCUACAGUCCGACGAUCUGGAUGUGAGCUUGCUCUGGCAGCAGCAGUGCUGUCCUUGUUUCUGAGCUGCCACCGGUUCACUGGAGUUAGGUGGGUCAAAGCUGAAAUUUAGCUUGGAAUUUAAGUUUCUAAUUUUAUCAACAGAGGAUUGAGCAUCA
# Biological target: T1, UNK ZnF1-3
# Assay: nsRBNS (natural sequence RNA bind-n-seq); RBNS binding buffer (assumed for nsRBNS): 25 mM Tris pH 7.5, 150 mM KCl, 3 mM MgCl2, 0.01% Triton X-100, 500 ug/ml BSA, 20 U/ml SUPERase-In, 4 C; UNK is unkempt and MSI1 is Musashi-1; names of the RNAs are library labels; protein concentration not given here; high values mean tight binding
row,Binder,binding signal
1,B1,0.945 enrichment R
2,B2,0.882 enrichment R
3,B3,1.8 enrichment R
4,B4,0.93 enrichment R
5,B5,1.31 enrichment R
6,B6,0.665 enrichment R
7,B7,0.449 enrichment R
8,B8,2.82 enrichment R
9,B9,1.32 enrichment R
10,B10,0.641 enrichment R
11,B11,0.518 enrichment R
12,B12,0.896 enrichment R
13,B13,1.2 enrichment R
14,B14,0.437 enrichment R
15,B15,0.882 enrichment R
16,B16,1.34 enrichment R
17,B17,0.37 enrichment R
18,B18,0.373 enrichment R
19,B19,0.84 enrichment R
20,B20,0.667 enrichment R
21,B21,1.17 enrichment R
22,B22,0.671 enrichment R
